# Results as given in the supplement of paper PMC8728848.
# The list shows a part of the results.
# Tests used:
# Experiment in all cases: glycan array binding signal (z-score within array); higher = stronger binding
# Settings in all cases: glycan notation: IUPAC condensed, linker removed
# [1] = target: Neu5Ac(a2-3)Gal(b1-4)GlcNAc(b1-6)GalNAc
# Method in brief: (§1)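 The binding signal is a Z-score computed within each array. Data were drawn from 3228 arrays in the Consortium for Functional Glycomics database, restricted to those with a known protein sequence. Scores were averaged over arrays of the same protein sequence at different concentrations or buffers, and over linkers, and negative values can be taken as non-binding.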
# [2] = target: Neu5Ac(a2-3)Gal(b1-4)GlcNAc(b1-6)[Gal(b1-3)]GalNAc
# Method in brief: as §1
# [3] = target: Neu5Ac(a2-3)Gal(b1-4)GlcNAc(b1-6)[Neu5Ac(a2-3)Gal(b1-3)]GalNAc
# Method in brief: as §1
# [4] = target: Neu5Ac(a2-3)Gal(b1-4)GlcNAc6S
# Method in brief: as §1
# [5] = target: Neu5Ac(a2-3)Gal(b1-4)[Fuc(a1-3)]GlcNAc
# Method in brief: as §1
# [6] = target: Neu5Ac(a2-3)Gal(b1-4)[Fuc(a1-3)]GlcNAc(b1-2)Man
# Method in brief: as §1
# [7] = target: Neu5Ac(a2-3)Gal(b1-4)[Fuc(a1-3)]GlcNAc(b1-3)Gal
# Method in brief: as §1
# [8] = target: Neu5Ac(a2-3)Gal(b1-4)[Fuc(a1-3)]GlcNAc(b1-3)Gal(b1-4)GlcNAc
# Method in brief: as §1
# [9] = target: Neu5Ac(a2-3)Gal(b1-4)[Fuc(a1-3)]GlcNAc(b1-3)Gal(b1-4)[Fuc(a1-3)]GlcNAc(b1-3)Gal(b1-4)[Fuc(a1-3)]GlcNAc
# Method in brief: as §1
# [10] = target: Neu5Ac(a2-3)Gal(b1-4)[Fuc(a1-3)]GlcNAc(b1-3)GalNAc
# Method in brief: as §1
# [11] = target: Neu5Ac(a2-3)Gal(b1-4)[Fuc(a1-3)]GlcNAc(b1-6)[Gal(b1-3)]GalNAc
# Method in brief: as §1
# [12] = target: Neu5Ac(a2-3)Gal(b1-4)[Fuc(a1-3)]GlcNAc(b1-6)[Neu5Ac(a2-3)Gal(b1-3)]GalNAc
# Method in brief: as §1
# [13] = target: Neu5Ac(a2-3)Gal(b1-4)[Fuc(a1-3)]GlcNAc6S
# Method in brief: as §1
# [14] = target: Neu5Ac(a2-3)Gal6S(b1-4)GlcNAc
# Method in brief: as §1
# [15] = target: Neu5Ac(a2-3)Gal6S(b1-4)[Fuc(a1-3)]GlcNAc
# Method in brief: as §1
# Neu5Ac(a2-3)GalNAc = target: Neu5Ac(a2-3)GalNAc
# Method in brief: as §1
# [16] = target: Neu5Ac(a2-3)GalNAc(b1-4)GlcNAc
# Method in brief: as §1
# [17] = target: Neu5Ac(a2-3)[GalNAc(b1-4)]Gal(b1-4)Glc
# Method in brief: as §1
# [18] = target: Neu5Ac(a2-3)[GalNAc(b1-4)]Gal(b1-4)GlcNAc
# Method in brief: as §1
# [19] = target: Neu5Ac(a2-3)[GalNAc(b1-4)]Gal(b1-4)GlcNAc(b1-3)GalNAc
# Method in brief: as §1
# [20] = target: Neu5Ac(a2-3)[Neu5Ac(a2-6)]GalNAc
# Method in brief: as §1
# Neu5Ac(a2-6)Gal = target: Neu5Ac(a2-6)Gal
# Method in brief: as §1
# [21] = target: Neu5Ac(a2-6)Gal(b1-3)GlcNAc(b1-3)[Gal(b1-4)GlcNAc(b1-6)]Gal(b1-4)Glc
# Method in brief: as §1
# Neu5Ac(a2-6)Gal(b1-4)Glc = target: Neu5Ac(a2-6)Gal(b1-4)Glc
# Method in brief: as §1
# [22] = target: Neu5Ac(a2-6)Gal(b1-4)GlcNAc
# Method in brief: as §1
# [23] = target: Neu5Ac(a2-6)Gal(b1-4)GlcNAc(b1-2)Man
# Method in brief: as §1
# [24] = target: Neu5Ac(a2-6)Gal(b1-4)GlcNAc(b1-2)Man(a1-3)Man(b1-4)GlcNAc(b1-4)GlcNAc
# Method in brief: as §1
# [25] = target: Neu5Ac(a2-6)Gal(b1-4)GlcNAc(b1-2)Man(a1-3)[Gal(b1-4)GlcNAc(b1-2)Man(a1-6)]Man(b1-4)GlcNAc(b1-4)GlcNAc
# Method in brief: as §1
# [26] = target: Neu5Ac(a2-6)Gal(b1-4)GlcNAc(b1-2)Man(a1-3)[GlcNAc(b1-4)][Neu5Ac(a2-6)Gal(b1-4)GlcNAc(b1-2)Man(a1-6)]Man(b1-4)GlcNAc(b1-4)GlcNAc
# Method in brief: as §1
# [27] = target: Neu5Ac(a2-6)Gal(b1-4)GlcNAc(b1-2)Man(a1-3)[Man(a1-6)]Man(b1-4)GlcNAc(b1-4)GlcNAc
# Method in brief: as §1
binder,measurement,setting,value
Pwp3 (Candida glabrata) (protein) MGSSHHHHHHSSGLVPRGSHMASKNPVDFTTVCQFPDNFSKKPGFLATTARLGLWITGNSYKELLNYPGTFTLTTQQASTTTPNIQLRGTDLFTTIYGLTVYPLYLLVELQGYFVPTQSGMYTFSLTGSDDAAIIFIGNPSTFPCDAFKTWPQATANDITVTDSINPSRTLYMVKGVAYPLRIAYYNGLGNGVLNAAFTDPSGTKRTDWNGYIWQYDQCSTCTYK,glycan array binding signal (z-score),[1],-0.242
same,glycan array binding signal (z-score),[2],1.44
same,glycan array binding signal (z-score),[3],-0.702
same,glycan array binding signal (z-score),[4],-0.776
same,glycan array binding signal (z-score),[5],0.139
same,glycan array binding signal (z-score),[6],-0.143
same,glycan array binding signal (z-score),[7],-0.349
same,glycan array binding signal (z-score),[8],-0.246
same,glycan array binding signal (z-score),[9],-0.332
same,glycan array binding signal (z-score),[10],-0.669
same,glycan array binding signal (z-score),[11],-1.81
same,glycan array binding signal (z-score),[12],0.931
same,glycan array binding signal (z-score),[13],-0.603
same,glycan array binding signal (z-score),[14],-0.707
same,glycan array binding signal (z-score),[15],-0.332
same,glycan array binding signal (z-score),Neu5Ac(a2-3)GalNAc,-0.215
same,glycan array binding signal (z-score),[16],0.357
same,glycan array binding signal (z-score),[17],-0.171
same,glycan array binding signal (z-score),[18],-0.119
same,glycan array binding signal (z-score),[19],-0.31
same,glycan array binding signal (z-score),[20],-0.14
same,glycan array binding signal (z-score),Neu5Ac(a2-6)Gal,-0.64
same,glycan array binding signal (z-score),[21],-0.183
same,glycan array binding signal (z-score),Neu5Ac(a2-6)Gal(b1-4)Glc,0.297
same,glycan array binding signal (z-score),[22],0.265
same,glycan array binding signal (z-score),[23],-0.372
same,glycan array binding signal (z-score),[24],-0.617
same,glycan array binding signal (z-score),[25],0.054
same,glycan array binding signal (z-score),[26],1.66
same,glycan array binding signal (z-score),[27],-0.074
